# Results published in PubChem BioAssay AID504332 (National Center for Advancing Translational Sciences (NCATS), 2011).
# The whole screen tested about 350,000 compounds, of which about 31,000 (8.9%) were called active. The inconclusive results got no clear call from the source; some entries with a clear call stand among them for comparison. Calls follow the shape of the dose curve; as a rule, active = well fitted inhibition curve with a large enough effect; inconclusive = small, poorly fitted or top-dose-only effect; inactive = no such curve, though single readings can be large or run the other way. A potency beside an inconclusive call is a rough fit, not a confirmed value.
# Target: Histone-lysine N-methyltransferase EHMT2 (Homo sapiens) (UniProt Q96KQ7)
# Test: qHTS Assay for Inhibitors of Histone Lysine Methyltransferase G9a; also: nearly all actives have a fitted effect of over 75% in size
# Settings: G9a H3K9 monomethylation, AlphaScreen, 2 h; activity, negative = inhibition: at 59 µM (top of the series) unless noted
# Summary of the method: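 G9a (20 nM) was preincubated 15 min with compound, then reacted 2 h at room temperature with 500 nM biotin-H3K9 peptide and 20 µM SAM. Monomethyl-H3K9 detected by AlphaScreen using anti-H3K9me1 antibody.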
# % is scaled to controls: 0 for no effect and ±100 for the full control effect; potency is read from the fitted curve at half-maximal effect; tags tell the direction and shape of the fitted curve.
# Sequence of UniProt Q96KQ7 (Q96KQ7 whole entry, looked up): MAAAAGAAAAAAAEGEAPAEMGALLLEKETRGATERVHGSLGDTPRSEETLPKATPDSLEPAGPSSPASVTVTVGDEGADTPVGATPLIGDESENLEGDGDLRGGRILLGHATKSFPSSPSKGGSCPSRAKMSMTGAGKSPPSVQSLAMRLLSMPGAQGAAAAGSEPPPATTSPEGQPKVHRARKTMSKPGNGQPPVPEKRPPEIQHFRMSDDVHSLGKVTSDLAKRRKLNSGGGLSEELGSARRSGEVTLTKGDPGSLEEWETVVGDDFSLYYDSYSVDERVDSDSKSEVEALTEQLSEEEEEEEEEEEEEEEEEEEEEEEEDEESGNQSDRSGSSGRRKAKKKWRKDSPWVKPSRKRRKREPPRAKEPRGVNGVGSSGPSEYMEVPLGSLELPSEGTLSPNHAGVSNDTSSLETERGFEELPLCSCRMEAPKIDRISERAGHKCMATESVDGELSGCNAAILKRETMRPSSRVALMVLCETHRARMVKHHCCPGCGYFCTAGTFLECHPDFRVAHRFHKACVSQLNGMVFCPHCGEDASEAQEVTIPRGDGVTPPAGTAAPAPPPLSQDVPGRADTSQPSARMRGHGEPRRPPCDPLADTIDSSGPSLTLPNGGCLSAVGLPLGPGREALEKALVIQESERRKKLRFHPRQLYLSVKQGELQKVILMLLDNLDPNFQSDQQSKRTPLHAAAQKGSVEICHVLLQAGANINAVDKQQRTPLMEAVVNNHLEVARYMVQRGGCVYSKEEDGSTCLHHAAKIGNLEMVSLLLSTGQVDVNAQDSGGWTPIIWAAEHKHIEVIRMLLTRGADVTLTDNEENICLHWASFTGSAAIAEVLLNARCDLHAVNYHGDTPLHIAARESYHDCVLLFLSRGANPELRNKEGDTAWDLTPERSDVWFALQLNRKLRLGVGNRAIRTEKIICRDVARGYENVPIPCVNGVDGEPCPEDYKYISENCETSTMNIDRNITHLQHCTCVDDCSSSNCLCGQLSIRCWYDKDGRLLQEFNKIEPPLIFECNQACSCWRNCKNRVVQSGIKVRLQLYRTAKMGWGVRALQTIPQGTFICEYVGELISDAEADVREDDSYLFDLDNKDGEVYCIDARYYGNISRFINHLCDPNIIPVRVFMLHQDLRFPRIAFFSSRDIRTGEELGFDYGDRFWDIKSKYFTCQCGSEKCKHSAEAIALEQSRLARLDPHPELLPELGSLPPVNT
Structure (SMILES),Potency,"activity, negative = inhibition"
NC(=O)CSc1nnc(NC(=O)c2ccc3ccccc3c2)s1,"inconclusive: 56.2 µM [inhibitor, single point]",–
Cc1ccc(S(=O)(=O)NCCC(=O)NCC(c2cccs2)N2CCOCC2)cc1 (configuration not stated),–,inactive: 3.13% [at 102 µM]
O=C(Nc1ccc(C(=O)O)cc1)/C(=C\c1ccc([N+](=O)[O-])cc1)NC(=O)c1ccc(Br)cc1,"inconclusive: 14.1 µM [inhibitor, partial curve, poor fit]",–
O=C1CC(NC23CC4CC(CC(C4)C2)C3)C(=O)N1c1ccc2c(c1)OCO2 (configuration not stated),–,inconclusive: -97.2% [inhibitor]
O=C(C1CC(=O)N(c2ccc(Br)cc2)C1)N1CCCC1 (configuration not stated),"inconclusive: 70.8 µM [inhibitor, single point]",–
Cc1nn(Cc2n[nH]c(=S)n2Cc2ccccc2)c(C)c1Cl,active: 2.51 µM,–
COc1ccccc1CCC(=O)N1CCN(C(=O)c2ccccc2)CC1,–,inactive: 23.7% [at 102 µM]
Cc1cc(C)c2c(N)c(C(=O)Nc3ccc(F)cc3)sc2n1,"inconclusive: 2 µM [inhibitor, partial curve, poor fit]",–
Cc1ccc2c(c1)N(C(=O)CSc1nncn1C)C(C)(C)c1ssc(=S)c1-2,active: 14.1 µM,–
c1ccc(SCCCCN2CCOCC2)cc1,–,inactive: 13.9% [at 102 µM]
CCOc1ccc(CN2CCN(Cc3[nH]c4ccc(OC)cc4c3C)CC2CCO)cc1 (configuration not stated),"inconclusive: 50.1 µM [inhibitor, partial curve]",–
COc1ccccc1CNC(=O)c1ccccc1OC,"inconclusive: 89.1 µM [inhibitor, single point]",–
C=CCn1c(O)c(N=NC(=O)OCC)c2ccccc21,–,inactive: 11.6%
CCc1cccc(C)c1NC(=O)COC(=O)c1ccc2c(c1)S(=O)(=O)c1ccccc1C2=O,"inconclusive: 89.1 µM [inhibitor, single point]",–
CCN(CC)CCN(C(=O)c1ccc(C(=O)c2ccccc2)cc1)c1nc2ccc(OC)cc2s1,active: 44.7 µM,–
Cc1cc([N+](=O)[O-])ccc1NC(=O)COc1nsnc1N1CCOCC1,"inconclusive: 89.1 µM [inhibitor, single point]",–
O=C(N/N=C/c1cccnc1)c1ccc(NC(=O)c2cccc(Cl)c2)cc1,active: 31.6 µM,–
CCOC(=O)c1ccccc1NC(=O)c1sc2nc3n(c(=O)c2c1C)CCCCC3,–,inactive: 4.58%
CN(C)S(=O)(=O)N(CC(=O)NCCSCc1c(F)cccc1Cl)c1ccccc1,–,inactive: 6.46%
C=CCc1cccc(OC)c1OCCOCCNCCO,active: 11.2 µM,–
O=S(=O)(Cc1ccccc1)NCc1cccnc1,"inconclusive: 35.5 µM [inhibitor, partial curve, poor fit]",–
COc1ccc(CNn2c(C)nc3ccccc3c2=O)cc1,–,inconclusive: -65.3% [inhibitor] [at 0.0925 µM]
Cc1ccc(S(=O)(=O)N2CCN(C(=O)c3cc(S(=O)(=O)N(C)C)ccc3N3CCCC3)CC2)cc1,"inconclusive: 50.1 µM [inhibitor, partial curve, poor fit]",–
N#Cc1c(SCc2ccccc2)sc(C(=O)c2ccccc2)c1N,active: 11.2 µM,–

Structure (SMILES),Potency,"activity, negative = inhibition"
CSc1nc2nc3c(cc2c(=O)n1-c1ccccc1C)CCCC3,active: 7.08 µM,–
CCOc1ccc(C(C)=O)cc1CSc1nnc(-c2ccoc2C)n1N,"inconclusive: 39.8 µM [inhibitor, single point]",–
COc1ccc(-n2cnc3cc(NCc4cccs4)ccc32)cc1,–,inconclusive: -75.3% [inhibitor] [at 12.7 µM]
COc1ccc(-c2noc(CNC(=O)c3ccccc3Br)n2)cc1,–,inactive: -1.82%
Cc1cc(C(=O)COC(=O)CNC(=O)c2ccc(Cl)c(Cl)c2)c(C)n1Cc1ccco1,–,inactive: 8.96%
CCOc1ccc(-c2cccc(NS(=O)(=O)c3ccc(F)cc3F)c2)nn1,–,inactive: -5.16%
Cc1ccc(S(=O)(=O)N2CCN(S(=O)(=O)N3CCCCC3)CC2)cc1,–,inactive: 12%
O=C(CN1CCCCCC1)N1c2ccccc2C=Cc2ccccc21,"inconclusive: 89.1 µM [inhibitor, single point]",–
COC(=O)N1CCC[C@@]2(CCN(c3ccccc3)C2)C1,–,inactive: 3.73% [at 12.7 µM]
CCN(CC)S(=O)(=O)c1cc([N+](=O)[O-])ccc1NNC(=O)Nc1ccc(F)cc1,"inconclusive: 1.41 µM [inhibitor, full curve, poor fit]",–
COc1ccc(NC(=O)C2CCN(C(=O)[C@@H]3Cc4ccccc4CN3)CC2)cc1,"inconclusive: 44.7 µM [inhibitor, partial curve, poor fit]",–
C=CCOc1c(Br)cc(/C=N/n2c(CC)n[nH]c2=S)cc1Br,"inconclusive: 3.55 µM [inhibitor, partial curve, poor fit]",–
C1CCc2nnnn2CC1,inactive,–
COc1ccccc1CNCC(=O)Nc1ccc(C(F)(F)F)cc1,active: 22.4 µM,–
O=[N+]([O-])c1cccn2cc(-c3ccc(Br)cc3)nc12,"inconclusive: 89.1 µM [inhibitor, partial curve, poor fit]",–
CSc1ccc(CN(C)CC(=O)NC(=O)NCCC2=CCCCC2)cc1,"inconclusive: 6.31 µM [inhibitor, single point]",–
COc1ccc(S(=O)(=O)N2CCOC23CCN(S(=O)(=O)c2ccc(F)cc2C)CC3)cc1,"inconclusive: 89.1 µM [inhibitor, partial curve, poor fit]",–
Cc1ccc(C)c(N2CCN(C(=O)Cn3cnc4onc(-c5ccc(F)cc5)c4c3=O)CC2)c1,–,inactive: -22.3%
Cc1cccc(C)c1NC(=O)CNC(=O)C1CCCC1,–,inactive: 26.8% [at 12.7 µM]
CCC(C)(C)NC(=O)C(c1cccn1C)N(C(=O)Cn1nnc2ccccc21)c1ccc(OC)cc1 (configuration not stated),–,inactive: 1.14%
COc1ccccc1-c1cc(-c2ccccc2)nc(SC(C(N)=O)c2ccccc2)c1C#N (configuration not stated),–,inactive: -28.8%
COc1ccccc1CNC(=O)C(=O)NCC(c1cccs1)S(=O)(=O)c1ccccc1 (configuration not stated),–,inactive: -8.37%
CCc1nnc(NC(=O)c2cc(=O)c3cc(C)ccc3o2)s1,–,inactive: 6.38%
CCOC(=O)c1c(C#N)c(SCC(=O)Nc2ccc(OC)cc2)nc2c1CN(CC)CC2,–,inconclusive: -60.5% [inhibitor] [at 12.7 µM]

Structure (SMILES),Potency,"activity, negative = inhibition"
CCOC(=O)c1ccc(NC(=O)CN2C(=O)C(CC)SC(CC)C2=O)cc1 (configuration not stated),"inconclusive: 89.1 µM [inhibitor, single point]",–
CN(C)c1ncc2nc(-c3cc(F)cc(F)c3)c(=O)n(CCC#N)c2n1,–,inactive: 8.46% [at 0.501 µM]
O=C(NC1CC1)c1c(O)c2ccccc2[nH]c1=O,"inconclusive: 89.1 µM [inhibitor, single point]",–
O=C(Nc1ccccc1F)C1CCCN(S(=O)(=O)c2ccccc2)C1 (configuration not stated),–,inactive: 5.52% [at 102 µM]
Cc1cc(C)c2ccc(C)[n+]([O-])c2c1O,active: 12.6 µM,–
O=C(O)/C=C/C(=O)Nc1ccc2c(c1)NC(=O)CO2,"inconclusive: 79.4 µM [inhibitor, partial curve]",–
COc1cccc(/C=C/C(=O)c2c(O)cc(C)oc2=O)c1O,"inconclusive: 39.8 µM [inhibitor, single point]",–
Cc1nc2ccccc2c(=O)n1/N=C/c1ccccn1,active: 28.2 µM,–
CC(C)(C)c1ccc(C(=O)NCC(=O)N/N=C/c2ccccc2OCC(=O)O)cc1,"inconclusive: 44.7 µM [inhibitor, partial curve]",–
Cn1c2ccccc2c(=O)c2ccc(C#CC3(O)CCCCC3)cc21,active: 79.4 µM,–
COC(=O)c1ccccc1NC(=O)CSc1nnc(-c2cccc(NC(C)=O)c2)n1C,"inconclusive: 3.98 µM [inhibitor, partial curve, poor fit]",–
COc1ccc(S(=O)(=O)NCC(c2ccc(C)cc2)N2CCN(C)CC2)cc1OC (configuration not stated),"inconclusive: 70.8 µM [inhibitor, partial curve, poor fit]",–
CC(C)(C)NC(=O)C(c1cccnc1)N(C(=O)c1ccc(Cl)nc1)C1CCCC1 (configuration not stated),active: 2.82 µM,–
Cc1ccc(C2C3=C(CC(C)(C)CC3=O)Nc3[nH]c(=S)[nH]c(=O)c32)cc1 (configuration not stated),–,inconclusive: -121% [inhibitor]
CCN(CC)c1ccc(/C=N/N2CCN(Cc3ccc(C)cc3)CC2)c(O)c1,–,inactive: -49.5% [at 12.7 µM]
O=[N+]([O-])c1ccc(COc2cccc(CNc3ccc(F)cc3)c2)cc1,"inconclusive: 28.2 µM [inhibitor, single point]",–
CCCSc1nsc(N)n1,"inconclusive: 8.91 µM [inhibitor, single point]",–
COc1ccc(CN2CCNC(=O)C2CC(=O)NCCCn2nnc3ccccc32)cc1C (configuration not stated),"inconclusive: 89.1 µM [inhibitor, single point]",–
C=CCN=c1scc(C)n1/N=C/c1ccc(O)c(O)c1,"inconclusive: 7.94 µM [inhibitor, full curve, poor fit]",–
Cc1cc(NS(=O)(=O)c2ccc(NC(=O)CN3C(=O)c4ccccc4C3=O)cc2)nc(C)n1,"inconclusive: 70.8 µM [inhibitor, partial curve, poor fit]",–
CC1CCCC(C(=O)OCc2ccccc2)N1 (configuration not stated),"inconclusive: 25.1 µM [inhibitor, single point]",–
Cc1cc(Cl)ccc1OCC(=O)N[C@@H](Cc1ccccc1)c1nc2ccccc2[nH]1,"inconclusive: 31.6 µM [inhibitor, single point]",–
COc1ccc(C(=O)NCCS(=O)(=O)NC2CCCC2)cc1,–,inactive: -17.9% [at 102 µM]
CCN(C(=O)c1ccc2c(Cl)c3c(nc2c1)CCC3)c1ccc(C)c(C)c1,"inconclusive: 79.4 µM [inhibitor, single point]",–
